Hit rate of the full screen: of about 46,000 compounds, about 60 (0.1%) were called active. Inconclusive results (about 3%) are left out. The call rests on the fitted dose curve; in most records, active means well fitted inhibition curve with a large enough effect; inconclusive means small, poorly fitted or top-dose-only effect; inactive means no such curve, though single readings can be large or run the other way. The list shows a part of the results.
Assay: Primary qHTS assay for Inhibitors of ovarian cancer metastasis using an organotypic tumor microenvironment (TME) model. Further: nearly all actives have a fitted effect of over 65% in size.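 On activity change, negative = inhibition: plate controls were DMSO wells for no effect and tomatine positive control wells for full effect.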
Conditions: SKOV3ip1-GFP adhesion/invasion on 3D omental model, fluorescence; series mostly up to 45.8 µM; activity change, negative = inhibition: at the top concentration
Procedure, shortened: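 Primary human omental fibroblast/mesothelial 3D culture pre-formed 48 h. SKOV3ip1-GFP cells added with compounds (0.36-46 umol/L), incubated 2 h RT/16 h 37 C, fixed; GFP cells quantified at 488/509 nm.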

Activity change, negative = inhibition, inactive:
COc1cccc(NC(=O)N(Cc2cn(C)c3ccccc23)C2CCCCC2)c1 -2.02%, Cc1cc(Nc2ccccc2Cl)n2nc(-c3ccco3)nc2n1 -3.81%, COc1ccc(NC(=O)NCc2cccn2Cc2ccc(F)cc2)cc1OC -7.7%, COc1cc(C2C(C(=O)OC(C)C)=C(C)N=C3SCCC(=O)N32)ccc1OCc1ccccc1 (stereo not drawn) -17.9%, CS(=O)(=O)NCCc1csc2nc(-c3ccccc3)nn12 -5.14%, COc1ccc(N2C(=O)CSC23C(=O)N(CC(=O)NCc2ccccc2)c2ccccc23)cc1 (stereo not drawn) -21.3%, Cc1ccc(NCc2ccccc2-c2nnc(-c3ccccc3Cl)o2)cc1Cl -7.25%, COc1ccccc1CNC(=O)CCCn1nc(C)c2c(C)n(-c3ccc(C)cc3)nc2c1=O -7.57%, Cc1nc2ccn(Cc3cccnc3)c(=O)c2cc1C(=O)NCc1ccc(Cl)cc1 4.26%, O=C(Cn1cc(S(=O)(=O)N2CCN(c3ccccc3F)CC2)c2ccccc2c1=O)Nc1cccc(C(F)(F)F)c1 -12.3%, Cc1cccc2c1-c1sc(C(=O)N3CCN(c4ccc(F)cc4)CC3)cc1CO2 -11.8%, CC(=O)c1ccc(N2CCN(S(=O)(=O)c3cc(-c4onc(C)c4C)ccc3C)CC2)cc1 -9.02%, O=C(NCCc1ccccc1)C(=O)NCC(c1cccnc1)N1CCN(c2ccccc2)CC1 (stereo not drawn) 0.355%, COc1ccc(C(=O)Nc2ccc3c(c2)N(C2CCCC2)C(=O)c2ccccc2S3)cc1OC -9.35%, Cc1ccc(C)c(-c2nn(CC(=O)Nc3cc(F)ccc3F)c(=O)c3c2CCCC3)c1 10.7%, CC(CNC(=O)c1ccc(CSc2nc3ccncc3n2Cc2cccc(F)c2)cc1)c1ccccc1 (stereo not drawn) -6.41%, O=C(CSc1nnc2scc(-c3ccc(Cl)cc3)n12)Nc1ccccc1F 9.08%, Cc1ccc(-c2cc(C(F)(F)F)n3nc(C(=O)Nc4sc5c(c4C#N)CCC(C)C5)cc3n2)cc1 (stereo not drawn) 3.05%, Cc1ccc2onc(CC(=O)Nc3cc(F)ccc3F)c2c1 -6.98%, CCc1ccccc1N(C)C(=O)Nc1cn(CC(C)C)c(=O)c2ccccc12 6.09%, CCC1CCCCN1S(=O)(=O)c1ccc2c(c1)CCCN2C(C)=O (stereo not drawn) 3.03%, C=Cc1ccc(CSc2nc(-c3ccccc3C)nc3c2Cc2c(CO)cnc(C)c2O3)cc1 -12.6%, COCCNC(=O)CN1C(=O)COc2ccc(S(=O)(=O)N3CCOCC3)cc21 51.7%, Cc1cc(N2CCN(C)CC2)nc2ccc(NC(=O)Nc3ccc(Cl)cc3)cc12 3.66%, CCOc1ccc(N2CC(NC(=O)c3ccc(S(=O)(=O)N4CCOCC4)cc3)CC2=O)cc1 (stereo not drawn) 3.39%, O=C(CSc1nc(=O)n(Cc2ccco2)c2c1CCC2)NCc1ccccc1Cl -14.4%, CCOc1ccc(CNC(=O)CCn2c(=O)c3cccn3c3cccnc32)cc1 4.4%, Cc1nn(-c2ccc(F)cc2)c(-n2cccc2)c1C(=O)N1CCCCC1C (stereo not drawn) 6.84%, O=C(CSc1nnc(CNC(=O)c2ccccc2)n1-c1ccc(F)cc1)Nc1ccccc1F 5.68%, COc1ccccc1N1CCN(S(=O)(=O)c2ccc3c(c2)CCCN3C(C)=O)CC1 1.93%, CCOCCCn1c(SCC(=O)Nc2ccc(F)cc2)nc2c(sc3ccccc32)c1=O 1.01%, CCCCOc1ccc(C(=O)Nc2sc3c(c2C(=O)OCC)CCCCC3)cc1 -8.25%, Cc1ccccc1CNC(=O)CN1CCSc2ccccc21 18.3%, Nc1nc2nc(-c3ccccc3)cc(=O)n2[nH]1 -1.57%, Cc1cccc(NS(=O)(=O)c2ccc3c(c2)n(C)c(=O)n3C)c1C -7.51%, COc1ccc(NC(=O)CN2CCCN(Cc3ccccc3)S2(=O)=O)cc1 0.0584%, Cc1ccc(NC(=O)C2CCN(S(=O)(=O)c3ccc4c(c3)CCCC(=O)N4)CC2)c(Br)c1 1.11%, COc1ccccc1N1CCN(c2ncc3c(n2)CCN(Cc2ccc(C)s2)C3)CC1 5.28%, CC[N+](CC)(CC)CCOc1cccc(OCC[N+](CC)(CC)CC)c1OCC[N+](CC)(CC)CC 21.5%, O=c1oc2ccccc2cc1-c1nc(-c2cccc(Cl)c2)cs1 2.94%, CN(C)CCNC(=O)c1ccc2nc(Cc3ccccc3)oc2c1 -1.06%, CCN(CC)C(=O)Cn1cc(SCC(=O)Nc2cc(OC)ccc2OC)c2ccccc21 7.81%

outcome, inactive:
COc1ccc(S(=O)(=O)NC2(C(F)(F)F)NC(=O)N(CCc3ccc(OC)c(OC)c3)C2=O)cc1 (stereo not drawn), Cc1ccccc1CNC(=O)CCCn1c(=O)c2cccn2c2ccccc21, CCOc1cccc(CC(=O)N2CCc3c([nH]c4ccccc34)C2c2ccc(C)cc2)c1OCC (stereo not drawn), COc1cc(C(=O)Nc2ccc(Cl)c(-c3nc4ncccc4o3)c2)cc(OC)c1OC, COC(=O)c1c(SC)nc2ccccc2c1OCc1ccc(C)cc1C, CCn1cc(C(=O)OCC(=O)Nc2cccc(Cl)c2C)c(=O)c2ccc(C)nc21, COC(=O)c1scc(-c2ccc(C)cc2)c1S(=O)(=O)Nc1ccc(OC(F)(F)F)cc1, N#Cc1ccc(NC(=O)COCc2cc(-c3ccc4c(c3)OCO4)on2)cc1, O=C(CC1NCCNC1=O)Nc1ccc(F)c(Cl)c1 (stereo not drawn), Cc1cc(=O)n2nc(N3CCC(C(=O)NCCCOC(C)C)CC3)sc2n1, CCC(C(=O)Nc1cc(-c2cn3cccnc3n2)ccc1C)c1ccccc1 (stereo not drawn), COc1ccc(Nc2ncc(C(=O)Nc3ccc(F)cc3F)c3ccccc23)cc1, O=C(c1ccc2c(c1)N(Cc1ccccc1Cl)C(=O)c1ccccc1S2)N1CCCC1, CCc1cccc(NC(=O)Cn2c(-c3ccc(F)cc3)cc(C(C)=O)c2C)c1, CCc1ccccc1-n1c(SCC(=O)Nc2ccc(C)cc2)nc2n[nH]c(C)c2c1=N, CCCCNS(=O)(=O)c1ccc(NC(=O)c2c(-c3ccccc3)noc2C)cc1, O=C(CSc1nc2ccccc2nc1Cc1ccc(Cl)cc1)N1CCCCC1, Fc1ccc(CNc2nc(-c3ccc(Cl)cc3)cc(C(F)(F)F)n2)cc1, COc1ccc(Cl)cc1NC(=O)CSc1nc(-c2cccs2)cc(C(F)(F)F)n1, Cc1cccn2c(=O)cc(CSc3nnc(NC(=O)C(C)C)s3)nc12, COc1ccc(Cl)cc1NC(=O)CSc1cc(C)[nH]c(=O)n1

Reference: PubChem BioAssay AID1963576 (National Center for Advancing Translational Sciences (NCATS), 2024)
